# Measured values: PubChem BioAssay AID1347073 (National Center for Advancing Translational Sciences (NCATS), 2019)
# The whole screen tested about 45,000 compounds, of which about 200 (0.44%) were called active. Not shown: some 7% with an inconclusive outcome. Calls follow the shape of the dose curve; as a rule, active = well fitted activation curve with a large enough effect; inconclusive = small, poorly fitted or top-dose-only effect; inactive = no such curve, though single readings can be large or run the other way. Some of the results follow.
# Test: qHTS of TDP-43 Inhibitors: NCGC Sytravon Library Screen; also: 0% is about no effect; nearly all actives have a fitted effect of over 55% in size
# Conditions: yeast TDP-43 toxicity rescue, BacTiter-Glo growth, 24 h; series mostly up to 46.1 µM; growth rescue (activation): at the top concentration
# Outline: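 TDP-43-expressing yeast, pregrown in raffinose, seeded at OD600 0.02 in galactose medium with compound for 24 hr at 30 deg C. Growth read by BacTiter-Glo luminescence, so rescue of toxicity appears as activation.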
Compound,growth rescue (activation),Potency
CCN1C(=O)/C(=C\N2CCN(c3cccc(Cl)c3)CC2)SC1=S,inactive: -8.07%,–
Cc1sc2ncnc(OCC(=O)NC(C)C(C)C)c2c1C (stereo not drawn),inactive: -19.5%,–
COc1ccccc1C(=O)OCC(=O)NC(C)CCc1ccccc1 (stereo not drawn),inactive: 15%,–
CCCOc1ccc(N2C(=O)CC(N(Cc3ccco3)C(=O)CCC(=O)O)C2=O)cc1 (stereo not drawn),inactive: 19.1%,–
O=C(NCCN1CCOCC1)c1ccc(Cl)c(S(=O)(=O)N2CCCCC2)c1,inactive: -28.7%,–
CC(C)(C)n1nc2c(c1NC(=O)c1cccc(C(F)(F)F)c1)CS(=O)C2 (stereo not drawn),inactive: 25.2%,–
Cc1ccc(NC(=O)CN2C(=O)NC(Cc3c[nH]c4ccccc34)C2=O)cc1S(=O)(=O)N1CCCCC1 (stereo not drawn),inactive: 17%,–
CCc1ccc(NC(=O)CCS(=O)(=O)c2ccc3c(c2)n(C)c(=O)c(=O)n3C)cc1,inactive: 2.96%,–
CCOC(=O)C1(Cc2ccc(OC)cc2)CCN(C(=O)CN2CCOC2=O)CC1,inactive: -3.18%,–
CCC(c1nnnn1Cc1ccccc1)N(Cc1ccco1)Cc1cc2cc(OC)ccc2[nH]c1=O (stereo not drawn),inactive: 18.5%,–
CCC(=O)N(CCO)Cc1cc2ccc(C)c(C)c2[nH]c1=O,inactive: -9.93%,–
COc1ccccc1NS(=O)(=O)c1cccc(C(=O)N/N=C(\C)c2ccc3c(c2)OCCO3)c1,inactive: -5.38%,–
Cc1c(Cl)cccc1NC(=O)CNC(=O)c1ccccc1F,inactive: -1.13%,–
CSc1cccc(NC(=O)C2C3C=CC4(O3)C2C(=O)N(CCCN2CCOCC2)C4C(=O)NC2CCCCC2)c1 (stereo not drawn),inactive: 8.3%,–
Cc1ccccc1OCC(O)Cn1c(=N)n(CCN2CCCCC2)c2ccccc21 (stereo not drawn),inactive: 1.63%,–
Cc1cc(C(=O)OCC(=O)Nc2ccccc2C(F)(F)F)on1,inactive: -9.45%,–
CC1(C)C2CCC1(CS(=O)(=O)NCc1ccc(C(=O)O)cc1)C(=O)C2 (stereo not drawn),inactive: 18.2%,–
COc1ccc(CNC(=O)C/C(C)=N/NC(=O)Cc2ccc(OC)c(OC)c2)cc1,inactive: 6.43%,–
O=[N+]([O-])c1cccc(-c2noc(COc3ccccc3)n2)c1,inactive: 11.2%,–
CCn1c(C)nc2c(C)[n+](CC(=O)c3ccc(Br)cc3)ccc21,inactive: -8.65%,–
CC1(c2cccc(Br)c2)NC(=O)N(CC(=O)N2CCc3ccccc32)C1=O (stereo not drawn),inactive: -7.61%,–
O=C(CCC(=O)NC1CCCCC1)N/N=C/c1ccncc1,inactive: -15.4%,–
COc1cccc(OC)c1C(=O)NC(=S)Nc1ccc2c(c1)C(=O)N(C)C2=O,inactive: -13.6%,–

Compound,growth rescue (activation),Potency
Cc1ccc(-c2cc3c(n2-c2ccc(C(=O)O)cc2)CCCC3=O)cc1,inactive: -26.1%,–
CCN=c1scc(-c2ccc3c(c2)NC(=O)CO3)n1N=C1CCCC1,–,inactive
Cc1cccc(C)c1NC(=S)NCCCN1CCCC1=O,inactive: -8.76%,–
C=CCNC(=O)c1ccccc1NC(=O)C1COc2ccccc2O1 (stereo not drawn),inactive: 9.41%,–
Cc1ccc(-n2cc(C(=O)c3ccccc3O)cn2)cc1,inactive: 17.9%,–
COc1ccc(NC(=O)c2cc(Cl)ccc2Cl)c([N+](=O)[O-])c1,inactive: 11.3%,–
Cc1cccc(C)c1NC(=O)CN(c1ccccn1)S(=O)(=O)c1ccc(F)cc1,inactive: -11.1%,–
CCOC(=O)c1c(NC(C)=O)c2c3c(sc2n1Cc1nc(-c2cccc(Cl)c2)oc1C)CCCC3,inactive: 8.31%,–
c1ccc(CSc2ncnc3c2cnn3-c2ccccc2)cc1,inactive: 18.8%,–
COc1ccc(NC(=O)C(=O)NCCC2=CCCCC2)c(OC)c1,inactive: 20.8%,–
COC(=O)c1ccc(OC(=O)c2cccnc2)cc1,inactive: -10.2%,–
O=[N+]([O-])c1cc(Cl)ccc1N1CCOCC1,inactive: 4.97%,–
O=[N+]([O-])c1cccc(P(=O)(O)c2cccc([N+](=O)[O-])c2)c1,inactive: 4.78%,–
CCCCNS(=O)(=O)c1ccc(NC(=O)c2cccs2)cc1,inactive: 2.13%,–
COCC(C)NC(=O)Cc1ccc(F)cc1 (stereo not drawn),inactive: 5.41%,–
Cc1ccccc1OCc1nc2ccccc2c(=O)n1/N=C/c1cccc([N+](=O)[O-])c1,inactive: 14.6%,–
CC(=O)c1cccc(-c2ccnc3c2CC(C(=O)NC(C)C)O3)c1 (stereo not drawn),inactive: 14.7%,–
CC(C)CCn1c(=O)c2ccccc2n2c(CN3CCCC3)nnc12,inactive: 6.01%,–
CC1(C(=O)Nc2cccc(NS(C)(=O)=O)c2)CCN1CCc1ccccc1 (stereo not drawn),inactive: 4.83%,–
COC(=O)c1cc(N2C(=O)C3C4C=CC(CC4)C3C2=O)ccc1Cl (stereo not drawn),inactive: -15%,–
Cc1ccc(S(=O)(=O)N2CCOCC2)cc1NC(=O)COC(=O)c1ccc(Cl)nc1,inactive: 1.98%,–
CC(=O)Nc1ccc(S(=O)(=O)NCC(=O)Nc2ccc3c(c2)OCO3)cc1,inactive: 9.97%,–
Nc1cc(C(F)(F)F)cc2c1SCC(=O)N2,inactive: 23.2%,–

Compound,growth rescue (activation),Potency
Cc1cccc(Cc2nnc(CCC(=O)N(CC3CC3)CC3CCCO3)o2)c1 (stereo not drawn),inactive: 13.5%,–
CC(=O)/C(=N/Nc1ccc(Br)cc1)Sc1cccc2cccnc12,inactive: 7.27%,–
CC(OC(=O)CCc1nc2ccccc2c(=O)[nH]1)C(=O)Nc1ncc(Cl)cc1Cl (stereo not drawn),inactive: 4.87%,–
CCc1nc2c(OCc3ccccc3C(=O)OC)cccn2c1N(C)C(=O)c1cccs1,inactive: 7.98%,–
CCOc1ccccc1NC(=S)N(CCC(C)C)C1CCN(C(C)=O)CC1,inactive: -6.67%,–
CCOC(=O)CCCCCN(Cc1ccccc1)S(=O)(=O)c1ccc([N+](=O)[O-])cc1,inactive: -7.9%,–
O=C(NCCc1ccccc1)c1cc([N+](=O)[O-])ccc1N1CCOCC1,inactive: 10.3%,–
COc1cc(C2C(C#N)=C(N)Oc3cc(C)oc(=O)c32)cc(OC)c1OC (stereo not drawn),inactive: -3.19%,–
COC(CC(=O)NNC(=S)Nc1ccccc1)OC,inactive: 1.93%,–
O=C(Nc1ccccc1C(=O)O)c1cccc(NC(=O)c2ccc(Br)o2)c1,inactive: -48.6%,–
COc1ccc(C(=O)N2CCCC(O)C2)cc1OC1CCN(C(C)C)CC1 (stereo not drawn),inactive: 9.43%,–
CC(C)c1nc(C#N)c(N2CCOCC2)o1,inactive: 20.5%,–
CCN(CC)S(=O)(=O)c1ccc(C)c(NC(=S)N2CCN(c3ccccn3)CC2)c1,inactive: -0.116%,–
Cc1ccc(SCCNC(=O)c2ccc(CN3CCOCC3)cc2)cc1,inactive: 6.51%,–
CC1CCCC(NC(=O)COC(=O)Cc2ccc(Br)cc2)C1C (stereo not drawn),inactive: 7.56%,–
O=C(CNS(=O)(=O)c1ccccc1)NNC(=O)C(Cl)Cl,inactive: -3.53%,–
CCNc1c(NC(=O)C2CCC(C)CC2)c(=O)oc2ccccc12 (stereo not drawn),inactive: 13.3%,–
Cc1ccc(CNC(=O)c2cc3c(s2)-c2ccccc2SC3)cc1,inactive: 9.04%,–
CCOc1ccc(NC(=O)Nc2ccccc2C(N)=O)cc1,inactive: -57.1%,–
CCc1ccc(N(C2C=CS(=O)(=O)C2)S(=O)(=O)c2ccccc2)cc1 (stereo not drawn),inactive: 11.4%,–
COc1ccc(/C=C(\C#N)C(=O)OCCNC(=O)c2ccncc2)cc1,inactive: 2.02%,–
CCOC(=O)c1cnc(Nc2nc3ccccc3o2)nc1CSC(=S)N(CC)CC,inactive: -3.65%,–
